Paper PMC4962086, “A cholesterol-binding domain in STIM1 modulates STIM1-Orai1 physical and functional interactions” (Scientific Reports, 2016)

Biological target: mCherry-Orai1 (UniProt Q96D31 1-301)
Assay: cell-based or functional assay

UniProt Q96D31, sequence (Q96D31 whole entry): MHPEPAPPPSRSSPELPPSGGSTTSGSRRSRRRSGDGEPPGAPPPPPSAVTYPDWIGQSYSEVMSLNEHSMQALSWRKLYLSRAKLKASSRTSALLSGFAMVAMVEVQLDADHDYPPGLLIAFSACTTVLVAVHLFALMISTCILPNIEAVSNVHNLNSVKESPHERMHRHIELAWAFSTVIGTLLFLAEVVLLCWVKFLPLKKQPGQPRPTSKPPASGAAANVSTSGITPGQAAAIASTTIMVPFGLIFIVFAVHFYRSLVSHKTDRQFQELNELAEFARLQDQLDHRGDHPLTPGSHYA

B1: GFP-SOAR (Stim Orai Activating Region of STIM1), wild type (domain or fragment)
chain: not shown
cytoplasmic calcium influx on addition of extracellular calcium (area under the curve), cells depleted of cholesterol with MβCD against cells with normal cholesterol: 5 fold
